PubChem BioAssay AID1379 (National Center for Advancing Translational Sciences (NCATS), 2008)
In all, about 200,000 compounds went through this assay and about 560 (0.28%) were called active. Inconclusive means that the source gave no clear call. Such entries were picked first, then a sample of the others. Calls follow the shape of the dose curve; as a rule, active = well fitted inhibition curve with a large enough effect; inconclusive = small, poorly fitted or top-dose-only effect; inactive = flat fitted curve, though single readings scatter. No potency is given beside an inconclusive call; the fits are too rough.

These molecules were tested against Luciferin 4-monooxygenase (Photuris pensylvanica) (UniProt Q27757) (assay: Counterscreen for Luciferase (Kinase-Glo TM) Inhibition). Settings: ATP luminescence, 8 min; series mostly up to 38.3 µM; activity change, negative = inhibition: at the top concentration.
How it was run: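 Luminescence was the read-out, taken after 8-minute incubation at ambient temperature. Luciferase turned over luciferin with 10 uM ATP in imidazole pH 7.2 buffer containing KCl, MgCl2, Tween 20 and BSA.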
% is scaled to controls: 0 for no effect and ±100 for the full control effect; potency is read from the fitted curve at half-maximal effect; tags tell the direction and shape of the fitted curve.
Also: nearly all actives have a fitted effect of over 60% in size.

| Compound | Potency | activity change, negative = inhibition |
| --- | --- | --- |
| CCOC(=O)c1oc2c(c1C)/C(=N/O)CCC2 | active: 11.2 µM |  |
| Cc1cccc(/C(N)=N/OC(=O)c2ccc(Cl)cc2Cl)c1 | inconclusive [inhibitor, partial curve] |  |
| CCCCCCN1C=C/C(=C\C=C(C#N)C#N)c2ccccc21 | inconclusive [inhibitor, partial curve] |  |
| COc1ccc(NC(=O)c2noc3c2CCC3)cc1 | inconclusive [inhibitor, partial curve] |  |
| Clc1ccc(-c2nnc(-c3ccccc3)o2)c(Cl)c1 | inconclusive [inhibitor, partial curve] |  |
| C/C(=N/OC(=O)c1ccc(C)cc1)c1cccs1 | active: 12.6 µM |  |
| O=C(O)c1ccc(N2Cc3ccccc3C2)cc1O | inconclusive [inhibitor, single point] |  |
| CCc1c(C(=O)NNC(=S)NCCc2ccccc2)csc1C |  | inactive: 3.78% |
| O=C(Cc1ccc(Cl)cc1)Nc1ccc(N2CCN(C(=O)c3ccco3)CC2)c(Cl)c1 |  | inactive: -2.49% |
| c1ccc(-c2noc(-c3cccs3)n2)nc1 | active: 12.6 µM |  |
| COc1cccc(NC(=O)c2ccn(C)n2)c1 | inconclusive [inhibitor, partial curve] |  |
| O=C(/C=C/c1ccc2c(c1)OCO2)c1cccs1 | active: 8.91 µM |  |
| COc1ccccc1N/C=C/c1onc(C)c1[N+](=O)[O-] | active: 11.2 µM |  |
| Cc1ccccc1OCC(=O)Nc1ccccc1-c1ccccc1 | inconclusive [inhibitor, partial curve] |  |
| CC1(O)CC(c2ccc(Cl)cc2)=NN1C(=O)c1ccc([N+](=O)[O-])cc1 (configuration not stated) | inconclusive [inhibitor, partial curve] |  |
| CN(C)/C=N/c1ncn(-c2ncc(C(F)(F)F)cc2Cl)n1 | inconclusive [inhibitor, single point] |  |
| N/C(=N\OC(=O)c1ccc(Br)o1)c1ccccn1 | inconclusive [inhibitor, single point] |  |
| COc1cc(/C=C(/C(=O)c2cccs2)c2nc3ccccc3[nH]2)ccc1O | inconclusive [inhibitor, single point] |  |
| O=C(Nc1cccc2ccccc12)c1onc2c1CCCC2 | inconclusive [inhibitor, partial curve] |  |
| Cc1c(N=C2C=C(Br)C(=O)C(Br)=C2)c(=O)n(-c2ccccc2)n1C | inconclusive [inhibitor, single point] |  |
| C=CCSc1nc(N)c2c(C)c(C)sc2n1 |  | inactive: -2.11% |

| Compound | Potency | activity change, negative = inhibition |
| --- | --- | --- |
| COc1ccc(C(C)=O)cc1CSc1nncn1-c1ccccc1 |  | inactive: -0.137% |
| O=C(Nc1ccccc1)c1ccc2nsnc2c1 | inconclusive [inhibitor, partial curve] |  |
| COc1ccccc1C/C(N)=N/OC(=O)c1cccs1 |  | inactive: -2% |
| Cn1nc(C(=O)Nc2nc3ccc(S(C)(=O)=O)cc3s2)ccc1=O | inconclusive [inhibitor, single point] |  |
| O=C(O)c1cc(N2N=C(C(F)(F)F)/C(=C/C=C/c3ccco3)C2=O)ccc1Cl | inconclusive [inhibitor, partial curve] |  |
| Cc1ccc(N=Nc2c(=O)[nH]n3c(=O)cc(C)[nH]c23)cc1 | inconclusive [inhibitor, partial curve] |  |
| COc1ccc(N=c2scc(-c3ccc(S(=O)(=O)N4CCOCC4)cc3)n2CCCO)cc1 |  | inactive: 3.05% |
| CC(=O)c1cccc(NS(=O)(=O)c2cccc(C(=O)O)c2)c1 |  | inactive: -1.38% |
| CCCc1ccc(-c2ccc(F)c(N)c2)nc1 | inconclusive [inhibitor, partial curve] |  |
| O=C(/C=C/c1c(F)cccc1Cl)c1ccc(F)cc1 | inconclusive [inhibitor, partial curve] |  |
| Cc1cc2ncn(/N=C/c3ccc(-c4ccccc4)o3)c2cc1C |  | inactive: -3.49% |
| CC(/C=C/C=C/c1ccccc1)=N\NC(=O)c1cccnc1 |  | inactive: 1.97% |
| O=c1c(Cl)c(N2CCCCC2)cnn1-c1nc2ccccc2[nH]1 | active: 1.58 µM |  |
| CCSc1nn2c(=O)c3ccccc3nc2s1 | inconclusive [inhibitor, partial curve] |  |
| Cc1ccc(-c2nc3ccccc3[nH]2)s1 | active: 12.6 µM |  |
| Cc1cccc(C(=O)Nc2cccc(OCC(=O)O)c2)c1 | inconclusive [inhibitor, single point] |  |
| N/C(=N\OC(=O)c1ccccc1)c1cccnc1 | inconclusive [inhibitor, single point] |  |
| COC(=O)c1ccc(/C=C(\C#N)c2ccccn2)cc1 | inconclusive [inhibitor, partial curve] |  |
| Cc1cccc(-c2cc3c(N=O)c4ccccc4c-3n[nH]2)c1 | active: 10 µM |  |
| CC(C)=CC(=O)Nc1ccc(OCc2ccccc2)cc1 | inconclusive [inhibitor, single point] |  |
| CSc1ccc(/C=N/NC(=O)c2cc(O)cc(O)c2)cc1 | inconclusive [inhibitor, partial curve] |  |

| Compound | Potency | activity change, negative = inhibition |
| --- | --- | --- |
| Cc1ccccc1Nc1nc(N)c2ccccc2n1 | active: 12.6 µM |  |
| COc1cccc(C(=O)Nc2cccnc2)c1 | inconclusive [inhibitor, partial curve] |  |
| O=C(/C=C/c1ccco1)N1CCc2ccccc21 | active: 10 µM |  |
| O=C(c1ccc(-c2nc3ccccc3s2)s1)N1CCOCC1 | inconclusive [inhibitor, full curve] |  |
| COc1ccc(/C=N/Nc2nncc3ccccc23)cc1 | active: 11.2 µM |  |
| Cc1ccc(C(=O)Nc2ncc3c(Cl)cccc3n2)cc1 | active: 11.2 µM |  |
| O/N=C1/CC/C(=N\O)c2nn(-c3ccccc3)nc21 | inconclusive [inhibitor, single point] |  |
| Cc1ccc(NC2=C(N3CCOCC3)C(=O)c3ccccc3C2=O)cc1 | inconclusive [inhibitor, single point] |  |
| Cc1cccc(/C(N)=N/OC(=O)c2cccs2)c1 | active: 2.51 µM |  |
| O=C(NC12CC3CC(CC(C3)C1)C2)c1ccc(-c2cccc(Cl)c2)o1 |  | inactive: 0.233% |
| COc1ccc(Nc2ccc3c(c2)=NC2(CCCCC2)[N+]=3[O-])cc1 | inconclusive [inhibitor, single point] |  |
| CN=Cc1sc2ccccc2c1O |  | inactive: -3.48% |
| COc1cccc(CN(C)C(=O)c2ccc(S(=O)(=O)N3CCCC3)cc2)c1OC |  | inactive: -1.54% |
| CCCCOc1ccc(-c2cn3ccccc3n2)cc1[N+](=O)[O-] | inconclusive [inhibitor, partial curve] |  |
| O=C(CN1CCN(c2ccccc2)CC1)N/N=C/c1cccc(F)c1 |  | inactive: -0.554% |
| Cc1ccc(C(=O)Nc2ccc3c(c2)OCO3)o1 | inconclusive [inhibitor, partial curve] |  |
| CCOC(=O)c1ccc(NC(=O)CN2CCN(CCN=CC3=C(O)CC(C)(C)CC3=O)CC2)cc1 |  | inactive: 7.15% |
| Cc1ccc(C#N)c(SCc2nnc(-c3ccc(Cl)cc3)o2)n1 |  | inactive: 1.95% |
| CCCCc1ccc(Nc2ncccc2C#N)cc1 | inconclusive [inhibitor, single point] |  |
| C[C@H](N)c1nnc(SCc2c(Cl)cccc2Cl)o1 |  | inactive: -2.45% |
| c1ccc(Nc2cc(Nc3ccccc3)[nH]n2)cc1 |  | inactive: 2.66% |

| Compound | Potency | activity change, negative = inhibition |
| --- | --- | --- |
| COC(=O)c1ccc(/C=N/NC(=O)c2cccc(F)c2)cc1 | inconclusive [inhibitor, partial curve] |  |
| c1ccc(CNc2ccc3ccccc3n2)nc1 | inconclusive [inhibitor, single point] |  |
| Cc1c(C(=O)NCc2ccc3c(c2)cc(C)n3C)cccc1[N+](=O)[O-] |  | inactive: 6.89% |
| O=C(CCS(=O)(=O)c1ccc(Cl)cc1)NCCN1C(=O)S/C(=C\c2ccccc2F)C1=O |  | inactive: 2.62% |
| CCC(=O)Oc1ccc(NC(=O)c2ccco2)cc1 | inconclusive [inhibitor, single point] |  |
| COc1cccc(Nc2ncc3nc(-c4ccccc4)c(=O)n(C[C@H]4CCCO4)c3n2)c1 |  | inactive: -1.26% |
| CC1CCCCC1NC(=S)Nc1cccc(S(=O)(=O)N(C)C)c1 (configuration not stated) |  | inactive: 0.0953% |
| COc1ccc2cc(-c3cc(C(=O)O)c4ccccc4n3)ccc2c1 | active: 7.94 µM |  |
| O=C(/C=C/c1ccc(OC2CSC2)cc1)c1ccccc1 | inconclusive [inhibitor, single point] |  |
| CCn1c(=N)c(C(=O)OC)cc2c(=O)n3ccccc3nc21 |  | inactive: -6.7% |
| COc1cccc(C(=O)Nc2ccc(NC(=O)c3ccco3)c(Cl)c2)c1 | inconclusive [inhibitor, single point] |  |
| Cc1ccc(S(=O)(=O)Oc2ccc3c(c2)O/C(=C\c2cccnc2)C3=O)cc1 |  | inactive: -6.21% |
| COc1cccc(C=Nc2cccc3c(=O)[nH][nH]c(=O)c23)c1O | inconclusive [inhibitor, partial curve] |  |
| COc1ccccc1-c1cc2nc(C)c(CCC(=O)NCc3ccco3)c(C)n2n1 |  | inactive: -2.8% |
| CCOc1ccc(N2Cc3ncccc3C2=O)cc1 | inconclusive [inhibitor, partial curve] |  |
| CCOC(=O)c1ccc(NC(=O)CCc2nc(-c3cccc(C)c3)no2)cc1 |  | inactive: -1.03% |
| O=C(Oc1cccnc1)c1ccccc1[N+](=O)[O-] |  | inactive: 2.72% |
| O=C(N/N=C\c1ccccc1O)c1ccccc1O | inconclusive [inhibitor, full curve] |  |
| O=c1oc2ccccc2c(O)c1/C=N/c1ccccn1 | inconclusive [inhibitor, single point] |  |
